Consider 91 compounds from article PMC4336329 (PLoS ONE, 2015).

SMILES strings stand for the structures. The whole screen tested about 310,000 compounds, of which about 14,000 (4.5%) showed an effect of 50% or more. The effect is printed as a negative number. The list shows a part of the results.
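Further: peak tail current of the secondary pulse compared with the same well before compound.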

The target in the test is human ether-à-go-go-related gene (hERG) potassium channel (human, UniProt Q12809). Description: primary screen, population patch clamp on CHO cells stably expressing hERG.
human ether-à-go-go-related gene (hERG) potassium channel, sequence (Q12809 whole entry, looked up): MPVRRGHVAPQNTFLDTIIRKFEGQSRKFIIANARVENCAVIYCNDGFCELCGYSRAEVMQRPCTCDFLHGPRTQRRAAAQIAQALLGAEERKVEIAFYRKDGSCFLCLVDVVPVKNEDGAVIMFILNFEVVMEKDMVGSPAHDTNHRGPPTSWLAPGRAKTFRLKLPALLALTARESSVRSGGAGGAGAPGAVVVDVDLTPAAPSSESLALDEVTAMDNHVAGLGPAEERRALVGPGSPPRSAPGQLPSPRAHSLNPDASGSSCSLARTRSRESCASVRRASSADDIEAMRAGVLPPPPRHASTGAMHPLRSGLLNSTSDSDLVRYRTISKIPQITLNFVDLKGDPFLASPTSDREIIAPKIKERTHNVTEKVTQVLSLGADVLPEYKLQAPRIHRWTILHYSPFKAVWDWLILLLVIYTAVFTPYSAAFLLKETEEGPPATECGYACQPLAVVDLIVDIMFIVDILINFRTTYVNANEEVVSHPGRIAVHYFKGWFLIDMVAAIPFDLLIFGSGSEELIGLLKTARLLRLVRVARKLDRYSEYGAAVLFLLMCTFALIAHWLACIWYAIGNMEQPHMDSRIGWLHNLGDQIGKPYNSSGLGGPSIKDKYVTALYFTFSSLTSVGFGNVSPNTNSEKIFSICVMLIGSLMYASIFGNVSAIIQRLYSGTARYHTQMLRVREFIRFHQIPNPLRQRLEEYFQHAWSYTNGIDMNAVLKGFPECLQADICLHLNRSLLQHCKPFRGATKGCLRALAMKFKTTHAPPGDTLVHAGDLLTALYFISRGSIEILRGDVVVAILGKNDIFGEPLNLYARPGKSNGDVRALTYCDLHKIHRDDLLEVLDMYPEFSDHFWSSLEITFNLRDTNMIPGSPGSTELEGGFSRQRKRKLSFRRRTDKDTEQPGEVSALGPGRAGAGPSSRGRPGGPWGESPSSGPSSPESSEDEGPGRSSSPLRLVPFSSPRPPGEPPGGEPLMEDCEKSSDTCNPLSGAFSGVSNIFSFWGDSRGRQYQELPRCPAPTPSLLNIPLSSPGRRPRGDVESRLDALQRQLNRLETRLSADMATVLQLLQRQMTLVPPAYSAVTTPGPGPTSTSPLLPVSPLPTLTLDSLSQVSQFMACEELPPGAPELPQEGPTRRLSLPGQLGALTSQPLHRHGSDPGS
Turning to `CCOC(=O)c1cc(=O)c2ccc(OCC(=O)Nc3ccccc3)cc2o1`, the “hERG current change (%, negative = inhibition) at 10uM” value is 4.88%.
`CC(C)C(c1nnnn1C1CCCC1)N1CCN(C(=O)c2ccco2)CC1` (stereo not shown): the “hERG current change (%, negative = inhibition) at 10uM” value is recorded as -26.8%.
Turning to `O=c1c2cn[nH]c2nc(SCc2c(F)cccc2F)n1-c1ccc(Cl)cc1`, the “hERG current change (%, negative = inhibition) at 10uM” value is reported as 19.5%.
The figure for `O=c1[nH]cc(S(=O)(=O)c2ccccc2)[nH]1` is 12.2%; for `O=C(Oc1cccc(N2C(=O)CCC2=O)c1)c1ccccc1` it is 9.31%.
The value for `Cc1cccc(C(=O)n2cnnc2N)c1` was 21.8%.
The value for `C=CCN1CCN(C(c2cccc(OC)c2OC)c2nnnn2CCC(C)C)CC1.Cl` (stereo not shown) was -2.34%; that for `O=C(CCNC(=O)C1CCN(S(=O)(=O)c2ccccc2)CC1)NCc1ccncc1` was 25.9%; that for `CCCOc1ccc(N2C(=O)C3ON(c4ccccc4)C(CCC)C3C2=O)cc1` (stereo not shown) was 13.6%.
`COc1ccc(Br)cc1CNc1ccc(N2CCOCC2)cc1`: the “hERG current change (%, negative = inhibition) at 10uM” value is listed as 8.73%.
The value for `O=c1[nH]cnc2sc3c(c12)CCCC3` was 11.6%.
On to `S=C(NCc1cccc(Cl)c1)NCc1ccco1`, for which the “hERG current change (%, negative = inhibition) at 10uM” value was 13%.
Regarding `CN=c1scc(C)n1/N=C/c1cc(Br)c(O)c(OC)c1`, the “hERG current change (%, negative = inhibition) at 10uM” value is 15.8%.
As for `CCc1cc2c(=O)c(-c3nc(C)cs3)c(CCCC(=O)O)oc2cc1O`, the “hERG current change (%, negative = inhibition) at 10uM” value is listed as 29.7%.
In the case of `CCNc1nc2cccnc2s1`, the “hERG current change (%, negative = inhibition) at 10uM” value came out at 4.42%.
With `CCOc1ccccc1NC(=O)COC(=O)C(CC(C)C)N1C(=O)C2CC=CCC2C1=O` (stereo not shown), the “hERG current change (%, negative = inhibition) at 10uM” value came to 8.06%.
The value for `CC(=O)c1cccc(NC(=S)NCCC2=CCCCC2)c1` was -18.7%.
The value for `CCCC(=O)Nc1nnc(COC)s1` was 4.96%; that for `Cc1ccc(-c2nc(CSCC(=O)N3CCCC3)c(C)o2)cc1` was -13.6%.
The value for `Cc1ccc(S(=O)(=O)Nc2ccc3c(c2)OCCO3)cc1` was 10.1%; that for `COc1ccccc1NC(=O)CCC(=O)OCC(=O)c1ccc(C)c([N+](=O)[O-])c1` was 11.8%.
Turning to `CCOC(=O)c1c(C)[nH]c(C)c1C(=O)C(Cc1ccccc1)N(C)C.Cl` (stereo not shown), the “hERG current change (%, negative = inhibition) at 10uM” value is 4.71%.
The value for `NS(=O)(=O)c1cccc(NC(=O)c2cccc(-c3ccc(O)cc3)c2)c1` was 25.6%; that for `CCc1ccc(S(=O)(=O)N/N=C\c2ccc3c(c2)OCO3)cc1` was 9.85%.
For the compound `CS(=O)(=O)Nc1nnc(SCC(=O)Nc2cccc([N+](=O)[O-])c2)s1`, the “hERG current change (%, negative = inhibition) at 10uM” value stood at 4.31%.
The value for `CC(NC(=O)c1cccc(C(F)(F)F)c1)C1CCCO1` (stereo not shown) was -3.64%.
Consider `Cc1ccccc1OCCC(=O)OCC(=O)NC1CC1`, for which the “hERG current change (%, negative = inhibition) at 10uM” value is given as -12.3%.
For `COC(=O)[C@H](CCSC)NC(=O)c1cc2c(cn1)[nH]c1ccccc12`, the “hERG current change (%, negative = inhibition) at 10uM” value came to 0.117%.
The figure for `COc1ccc(-c2nc(CCNC(=O)c3ccco3)cs2)cc1OC` is -4.6%; for `O=C(NCc1cccnc1)c1cccc(Cl)c1` it is 3.95%; for `Cc1ccc(S(=O)(=O)NNC(=O)Nc2cccc3ccccc23)cc1` it is 16.2%.
The value for `N#CCCN(C(=O)CO/N=C/c1cccc([N+](=O)[O-])c1)c1ccccc1` was -18.9%; that for `Cl.O=C(CCN1CCOCC1)c1ccc(Br)cc1` was 25.2%.
The figure for `Cc1nn(C)c(=S)n1-c1ccc(Cl)cc1` is 15.4%; for `CCOc1ccc(S(=O)(=O)NCCC(=O)N(C)Cc2cccs2)cc1` it is -20.9%; for `COc1cccc(Nc2ccc(Nc3cccc(OC)c3)nn2)c1` it is -0.276%.
On to `CCC(CC)NC(=O)CCc1nc2ccccc2c(=O)[nH]1`, for which the “hERG current change (%, negative = inhibition) at 10uM” value was 13.7%.
The value for `COc1ccc(OCCn2cnc(Cl)c2Cl)cc1` was 8.05%; that for `CC1(C)CC(=O)C2=C(C1)OC(c1cccs1)C(C#N)=C2N` (stereo not shown) was -25.7%.
The value for `CCCc1cc(=O)oc2cc(C)cc(OCC(=O)N3CCC(C(=O)O)CC3)c12` was 8.99%.
Take `CC(=O)Nc1ccc(C(=O)Nc2ccc(S(=O)(=O)NCC3CCCO3)cc2)cc1` (stereo not shown): the “hERG current change (%, negative = inhibition) at 10uM” value was found to be 10.7%.
The value for `N#CCOC(=O)C1CSC2(c3ccc(Br)cc3)CCC(=O)N12` (stereo not shown) was 8.43%; that for `O=C(NCCC1CCCCN1S(=O)(=O)c1ccc(F)cc1)C(=O)NCc1cccnc1` (stereo not shown) was -18.8%; that for `CC(=O)c1ccc(N2CCN(C(=O)Nc3ccc(C(C)C)cc3)CC2)cc1` was -63.7%.
The figure for `CCOC(=O)C(=O)N(Nc1ccccc1C)c1ccccc1C` is -14.3%; for `Cc1ccccc1N(CC(=O)N1CCc2ccccc2C1)S(C)(=O)=O` it is 6.34%; for `O=C(CCN1C(=O)/C(=C/c2ccc(F)cc2)SC1=S)NCCc1cnc[nH]1` it is -33.2%.
As to `CCOc1ccc(CCNC(=O)COC(=O)c2cccc(N(C)C)c2)cc1OCC`, the “hERG current change (%, negative = inhibition) at 10uM” value is given as -0.637%.
Turning to `O=C(CSc1cn(Cc2ccccc2)c2ccccc12)NCc1ccc(F)cc1`, the “hERG current change (%, negative = inhibition) at 10uM” value was 10.4%.
In the case of `O=c1c(-c2ccc(Br)cc2)coc2c(CN3CCOCC3)c(O)ccc12`, the “hERG current change (%, negative = inhibition) at 10uM” value is recorded as -20.7%.
The figure for `COc1cc2cc(CN(Cc3cccs3)C(=S)Nc3ccc(C)cc3)c(=O)[nH]c2cc1OC` is 7.58%; for `COc1ccccc1C(NC(C)=O)c1c(O)ccc2ccc(O)cc12` (stereo not shown) it is -3.24%.
Consider `CC(C)(C)[C@H]1CCC(=O)N([C@H](CN=[N+]=[N-])Cc2ccccc2)CC1`, for which the “hERG current change (%, negative = inhibition) at 10uM” value is on record as -7.5%.
As for `Cc1nn2c(-c3ccc(S(=O)(=O)N4CCN(C)CC4)o3)nnc2c2ccccc12`, the “hERG current change (%, negative = inhibition) at 10uM” value is reported as 13.6%.
The figure for `Cc1cccc(C)c1NC(=O)CNC(=O)Cc1ccccc1[N+](=O)[O-]` is 17.9%; for `Cc1ccc2nc(NC(=O)c3ccc(N4C(=O)CCC4=O)cc3)sc2c1` it is 15.8%; for `Cc1cc(C)cc(C(=O)/C=C2\NC(=O)CS2)c1` it is 5.64%.
The value for `CCCN1CCN(C(=S)Nc2ccc([N+](=O)[O-])cc2)CC1` was -52.1%; that for `Cc1ccc(C)c(NS(=O)(=O)c2cc3c4c(c2)CC(=O)N4CCC3)c1` was 4.86%.
Consider `CCCCCC(=O)Nc1ccc(N2CCN(CC)CC2)c(Cl)c1`, for which the “hERG current change (%, negative = inhibition) at 10uM” value is on record as -71.5%.
The figure for `Cc1ccc(S(=O)(=O)N2CCOCC2)cc1C(=O)N1CC(C)OC(C)C1` (stereo not shown) is 15.1%; for `COc1ccc(N2C(=O)CC(Cc3ccccc3)C2=O)cc1` (stereo not shown) it is 12.7%.
The figure for `O=C(C1CCCCC1)N1CCN=C1SCc1cccnc1` is -0.582%; for `CCN1CCCC1CNC(=O)CSCc1nc(-c2ccccc2C)oc1C` (stereo not shown) it is -23.4%; for `O=C(CNS(=O)(=O)c1ccccc1)NCC(=O)OCc1ccccc1F` it is 13.7%.
The figure for `CC1(OC(=O)CCc2ccccc2)C(=O)C=C2C=C3CCCN3C=C2C1=O` (stereo not shown) is -1.36%; for `C=CCn1c(COc2ccccc2)nnc1SCC(=O)Nc1ccc2c(c1)OCCO2` it is 1.65%.
As for `Cc1cc(C2C(=O)c3ccccc3C2=O)c(C)c(C)c1C`, the “hERG current change (%, negative = inhibition) at 10uM” value was -14.1%.
The value for `CCC(=O)C1=C(O)C(c2cccc(Oc3ccccc3)c2)CCC1=O` (stereo not shown) was -4.31%; that for `COc1ccccc1NS(=O)(=O)c1ccc2oc(=O)ccc2c1` was 9.62%.
The value for `C=CCNC(=O)c1c(-c2c(F)cccc2Cl)noc1C` was -1.62%.
The figure for `CCOc1ccc(C(C)NC(=O)Cc2ccccc2F)cc1OCC` (stereo not shown) is 12.3%; for `CC(C)(C)NC(=O)C(c1ccncc1)N(C(=O)Cn1nnc(-c2ccc(F)cc2)n1)c1ccc(F)cc1` (stereo not shown) it is -20%; for `c1ccc(-c2nc(-c3ccncc3)n[nH]2)nc1` it is -1.5%.
For `COc1ccc(-c2nn(Cc3ccccc3)cc2C(=O)N2CCN(c3ncccn3)CC2)cc1OC`, the “hERG current change (%, negative = inhibition) at 10uM” value is -38.4%.
The value for `CCN(CC)S(=O)(=O)c1ccc(C)c(C(=O)Oc2cccc(-c3cnc4ccccc4n3)c2)c1` was 15.7%; that for `Cc1cc(=O)oc(C)c1C(=O)NCC1COc2ccccc2O1` (stereo not shown) was -4.16%.
The value for `O=C(c1ccc(Cl)cc1)N1CCC(N2CCC(C(=O)N3CCOCC3)CC2)CC1` was -22.8%; that for `Cc1nc(-c2nc(-c3c(C(=O)NNC(=O)Nc4cccc(Cl)c4)noc3C)cs2)cs1` was -3.74%.
The value for `O=C(Nc1ccccc1)N1CCc2ccccc2C1` was 10.8%; that for `O=C(c1ccccc1)c1c(O)nc(-c2ccccc2)n(-c2ccccc2)c1=O` was 10.4%; that for `CCCCc1nc2sc3c(SCC(=O)NCc4ccco4)ncnc3c2c2c1CCC2` was 23.4%.
Turning to `CCN(Cc1cnn(C)c1)C(=O)c1cc(COc2cc(C)c(Cl)c(C)c2)on1`, the “hERG current change (%, negative = inhibition) at 10uM” value is on record as -43.1%.
Consider `COc1cccc(CNC(=O)Cn2c(=O)n(CCC(=O)N3CCCCC3)c(=O)c3sccc32)c1`, for which the “hERG current change (%, negative = inhibition) at 10uM” value is reported as -3.26%.
The figure for `Nc1cc(N2CCCC2)ccc1[N+](=O)[O-]` is 7.33%; for `FC(F)(F)c1ccc(-c2nc(=S)[nH][nH]2)cc1` it is 27.6%.
The value for `CCOc1cc(NC(=S)NCC2CCCO2)c(OCC)cc1NC(=O)CC` (stereo not shown) was -14.1%; that for `NC(CC(=O)O)C1CCCCC1` (stereo not shown) was 17.5%; that for `N#CC1(NC(=O)CN2CCc3ccccc3C2)CCCC1` was 17.9%.
The value for `COc1ccc(S(=O)(=O)N(Cc2cccs2)C2CCCC2)cc1` was 5.76%; that for `Cc1ccc(OCCC(=O)OCC(=O)N2CCN(S(=O)(=O)c3ccc(C)cc3C)CC2)cc1` was 11.2%.
